Measured values reported in PubChem BioAssay (NCATS).
The inconclusive results got no clear call from the source; some entries with a clear call stand among them for comparison. Potencies of inconclusive entries are doubtful fits and often do not repeat. The source made the active and inactive calls. The call rests on the fitted dose curve; in most records, active means well fitted activation curve with a large enough effect in the signal ratio, with a control signal flat (not every such curve was filed as active); inconclusive means small, poorly fitted or top-dose-only effect, or effect the other way, or a change in a side signal; inactive means flat fitted curve, though single readings scatter; the % refers to the signal ratio.

Assay: qHTS Assay for Identification of Small Molecule Agonists for Hypoxia Response Element Signaling Pathway (AID 914); on activation: top concentration of the series differs between compounds; % of control where 0% means no effect
Settings: ME-180 (cervical carcinoma) HRE-bla reporter, beta-lactamase ratio, CoCl2, 17 h; activation: active compounds read high
Summary of the method: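 Compounds in a titration series were added to ME-180 reporter cells alongside an EC50 level of CoCl2. After 17 hours, beta-lactamase activity was read as the 460nm/530nm emission ratio of CCF4, giving AC50 values.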
Potency means the concentration at half of the fitted maximal effect; tags describe the fitted curve by direction and shape or compound fluorescence and quenching.

| Compound | Potency | activation |
| --- | --- | --- |
| O=C(Nc1cccnc1)c1cccnc1 | inconclusive: 0.631 µM [inhibitor, single point] | – |
| Cc1[nH]c2ccc3c(ncn3CCC#N)c2c1C | inconclusive: 2.51 µM [inhibitor, full curve] | – |
| O=C(CSc1ncnc2nc[nH]c12)c1ccccc1 | inconclusive: 0.1 µM [inhibitor, single point] | – |
| O=C1c2ccccc2-c2ccc(NC(=O)[C@H]3CCCC[C@@H]3C(=O)O)cc21 | – | inactive: -7.45% |
| CC(=O)CCn1c(=O)n(CCC(C)=O)c(=O)n(CCC(C)=O)c1=O | – | inactive: 11.1% |
| COc1cccc(C2/C(=C(/O)c3cnn(-c4ccccc4)c3C)C(=O)C(=O)N2CCN(C)C)c1 (stereo not drawn) | inconclusive: 5.01 µM [inhibitor, single point] | – |
| CCOc1ccc(-n2c(SCc3ccc(C#N)cc3)nnc2-c2cccnc2)cc1 | inconclusive: 0.794 µM [inhibitor, partial curve] | – |
| Cc1nn(-c2ccccc2)c2c1C(=O)NC(=O)C(C)(C)C2 | – | inactive: -11.1% |
| O=C(O)c1c2c(c(O)c3c1CN(C1CCCCC1)CO3)OCN(C1CCCCC1)C2 | – | inconclusive: -0.0006% |
| CC(C)NC(=O)N1CC2(CCN(C(=O)c3ccco3)CC2)C1 | – | inactive: 0.544% |
| O=C1C2=CC[C@H]3C(=O)N(Cc4ccccc4)C(=O)[C@@H]3[C@@H]2[C@H](O)[C@@H]2O[C@H]12 | inconclusive: 3.16 µM [inhibitor, single point] | – |
| C/C(=N/S(=O)(=O)c1ccc(Cl)c(Cl)c1)OCC(C)(C)C | – | inactive: 8.96% |
| COc1cc(C2C(C(=O)c3ccc(C)o3)=C(O)C(=O)N2c2cc(C)on2)cc(OC)c1OC (stereo not drawn) | inconclusive: 12.6 µM [inhibitor, single point] | – |
